From PubChem BioAssay AID485344 (National Center for Advancing Translational Sciences (NCATS), 2010)
About 6,900 (2%) of roughly 340,000 compounds were called active. No stated cut-off is given here; in the data, active means inhibition above about 30%; inactive means below that, where a call was filed. The list shows a part of the results, in another mix than the full data. Entries without a call were filed so in the source.
Further: 0% is about no effect.

The compounds below were run against D(2) dopamine receptor (Homo sapiens) (UniProt P14416) (assay: HTS Assay for Allosteric Antagonists of the Human D2 Dopamine Receptor: Primary Screen for Antagonists). Conditions: HEK293 TREx D2 cells, calcium flux, dopamine EC80; at 10 µM; stronger effect = higher value.
UniProt P14416, sequence (P14416 whole entry, looked up): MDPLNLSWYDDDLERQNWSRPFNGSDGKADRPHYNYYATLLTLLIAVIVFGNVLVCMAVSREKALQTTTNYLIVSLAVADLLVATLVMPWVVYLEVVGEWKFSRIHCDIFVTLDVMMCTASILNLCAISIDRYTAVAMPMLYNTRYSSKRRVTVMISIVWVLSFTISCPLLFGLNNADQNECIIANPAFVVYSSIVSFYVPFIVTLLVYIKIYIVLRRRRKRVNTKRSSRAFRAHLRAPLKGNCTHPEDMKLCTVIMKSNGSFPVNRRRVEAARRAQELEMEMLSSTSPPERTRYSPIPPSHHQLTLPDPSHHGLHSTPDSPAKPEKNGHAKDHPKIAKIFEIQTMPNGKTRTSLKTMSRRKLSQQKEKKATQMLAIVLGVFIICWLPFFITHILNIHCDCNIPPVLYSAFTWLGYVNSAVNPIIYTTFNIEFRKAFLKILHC
Summary of the method: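 Calcium flux kinetic readout in an inducible HEK293 TREx D2 line plated overnight at 30 C. After 180 s compound exposure, an EC80 dopamine challenge follows with another 180 s kinetic read to detect antagonism.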
`Cc1ccc(CCNC(=O)Cc2ccc(NC3=NC4CS(=O)(=O)CC4S3)cc2)cc1` (stereo not given) was tested, and the inhibition was active: 37.7%.
Compound `COc1cc(NC(=O)CSc2nc3ncccc3o2)cc(OC)c1` has an inhibition of -13.1%.
`COc1ccc(CCNC(=O)Cc2c(C)c3cc4c(C(C)(C)C)coc4c(C)c3oc2=O)cc1` was tested, and the inhibition was 2.46%.
In the case of `OC(COCc1cccs1)CN1CCN(c2cccc(C(F)(F)F)c2)CC1` (stereo not given), the inhibition is reported as active: 50.4%.
In the case of `Cc1ccc(CNC(=O)c2cc3c(=O)n(Cc4ccco4)ccc3nc2C)cc1`, the inhibition is reported as -15.8%.
In the case of `COc1ccc(CC(C)N2CCN(c3ccccc3)CC2)cc1OC` (stereo not given), the inhibition is reported as active: 66.2%.
`Cc1ccc(C)c(Nc2cc(C(=O)NC3CCCC3)c3ccccc3n2)c1` gave an inhibition of -2.79%.
For `O=C(NCC1CCCO1)c1nnc(Cc2ccc(F)cc2)o1` (stereo not given), the inhibition was active: 38.9%.
Compound `COc1ccc(NC(=O)CC2C(=O)N(c3ccc(OC)cc3)C(=O)N2CCC2=CCCCC2)cc1` (stereo not given) has an inhibition of 18.8%.
`CCOC(=O)c1c(NC(=O)COc2ccc(Cl)cc2C)sc2c1CCCCC2` showed an inhibition of -9.96%.
`Cc1ccc(CNC(=O)CS(=O)(=O)c2cccc3nsnc23)cc1` gave an inhibition of -1.75%.
Work on `COc1cccc(NC(=O)Cn2c(=O)n(CCC(=O)NCCc3ccc(Cl)cc3)c(=O)c3ccccc32)c1` yielded an inhibition of 3.87%.
`COc1ccc(-c2nc(CS(=O)(=O)CC(=O)NCc3ccccc3Br)c(C)o2)cc1` gave an inhibition of 3.3%.
For `COc1ccc(C(=O)CCN2CCN(c3ccc(OC)cc3)CC2)cc1`, the inhibition was active: 31.1%.
`O=C(NCCCN1CCCCCC1)c1ccc2c(c1)sc1nc(-c3ccccc3)cn12` gave an inhibition of 3.03%.
For `Cc1nc2cc(-c3ccccc3)nn2c(C)c1CCC(=O)Nc1ccc(F)cc1F`, the inhibition was -0.0044%.
`CCC(C(=O)Nc1ccc(C)c(C)c1)n1c(=O)c(C(F)(F)F)nc2ccccc21` (stereo not given) showed an inhibition of 1.78%.
In the case of `CCOc1ccc(NC(=O)CCc2c(C)nn(-c3ccc(N4CCCC4)nn3)c2C)cc1`, the inhibition is reported as 2.23%.
For `Cc1ccc(CNC(=O)CCCn2c(=O)c3ccccc3n(CC(=O)Nc3ccc(C)cc3)c2=O)cc1`, the inhibition was -3.51%.
`CCOc1ccc(CCNC(=O)CS(=O)(=O)Cc2nc(-c3ccc(OC)cc3)oc2C)cc1` showed an inhibition of 25.4%.
Work on `COc1ccc(Cn2c(=O)n(Cc3ccco3)c(=O)c3oc4ccccc4c32)cc1` yielded an inhibition of 0.893%.
In the case of `Cc1cccc2sc(N(CCN(C)C)C(=O)c3ccc4c(c3)OCCO4)nc12`, the inhibition is reported as 19.8%.
For `Cc1nc2scc(C)n2c(=O)c1S(=O)(=O)NCC1CCN(Cc2ccc(F)cc2)CC1`, the inhibition was active: 34.2%.
With `Cc1ccccc1OCc1nc2ccccc2c(=O)n1/N=C/c1cn[nH]c1-c1ccccc1` the inhibition was active: 56.7%.
With `Cc1cc(OC(C)C(=O)Nc2cccc(-c3nc4ccccc4o3)c2)cc(C)c1Cl` (stereo not given) the inhibition was 11.8%.
For `O=C(CSc1nnc(-c2ccco2)n1-c1ccccc1)N1CCN(C(=O)c2ccco2)CC1`, the inhibition was active: 65.1%.
For `CC(C)N(C(=O)COC(=O)[C@@H]1CC(O)CN1S(=O)(=O)c1ccc(C(C)(C)C)cc1)C(C)C` (stereo not given in full), the inhibition was active: 37.8%.
`COc1ccc(-c2nc(CSCC(=O)N3CCN(c4cc(Cl)ccc4C)CC3)c(C)o2)cc1` was tested, and the inhibition was -20.6%.
With `Cc1ccc(Cn2c(C)c3cnn(CC(=O)NCc4ccccc4)c(=O)c3c2C)cc1` the inhibition was -5.51%.
`CC(=O)N1CCc2cc(S(=O)(=O)CCC(=O)Nc3ccc(C)cc3Br)ccc21` showed an inhibition of 0.723%.
`CCN(CC)c1ccc(NC(=O)c2cnn(-c3ccccc3)c2-n2cccc2)c(C)c1` showed an inhibition of 3.77%.
For `Cc1cccc(NS(=O)(=O)c2ccc3c(c2)CC(C)N3C(=O)C2CCC2)c1C` (stereo not given), the inhibition was 28.2%.
For `Cc1ccc(-c2nc3ncccn3c2Nc2ccc3c(c2)OCCO3)cc1`, the inhibition was 0.184%.
`O=C(CCS(=O)(=O)c1ccc(Br)cc1)Nc1ccc(F)cc1F` showed an inhibition of -12.1%.
For `COc1cccc2c1cc1c(=O)n(CC(=O)N3CCN(c4ccccc4)CC3)nc(C)n12`, the inhibition was -23%.
Work on `CCOc1ccc(N2CC(c3nc4ccccc4n3CCOc3ccccc3OC)CC2=O)cc1` (stereo not given) yielded an inhibition of -0.414%.
For `O=C1CC(c2nc(-c3ccccc3)no2)CN1c1ccccc1` (stereo not given), the inhibition was 2.6%.
With `CCOC(=O)c1ccc(N2C(=O)c3n[nH]c(-c4ccco4)c3C2c2cccc(OC)c2)cc1` (stereo not given) the inhibition was 13.4%.
`CC1CCN(CCOCCOc2ccccc2-c2ccccc2)CC1` was tested, and the inhibition was active: 55.8%.
`Cc1oc(-c2ccc(C(=O)NCc3cccc(F)c3)cc2)nc1COc1ccccc1` gave an inhibition of -12.8%.
`COCCCNC(=O)c1ccc(-c2nc(CS(=O)(=O)c3ccc(C)cc3)c(C)o2)cc1` gave an inhibition of 1.46%.
`COc1ccc(NC(=O)CCc2c(C)nn(-c3ccc(N4CCCCC4)nn3)c2C)cc1Cl` was tested, and the inhibition was 11.3%.
Compound `Cc1ccccc1NC(=O)CSc1nc2ccccc2c2nc(CCn3cncc3C)nn12` has an inhibition of -1.23%.
For `N#Cc1c(C(F)(F)F)cc(-c2ccc(F)cc2)nc1SCC(=O)Nc1ccccc1`, the inhibition was -2.99%.
`CCn1c(C(=O)N2CCC(C(=O)NCCc3ccc(C)cc3)CC2)cc2sccc21` showed an inhibition of -9.28%.
With `Cc1ccc(Cn2ccnc2SCC(=O)NCc2ccccc2Cl)cc1` the inhibition was 13%.
For `Cc1ccc(CNC(=O)C(C)n2nc(C)n3c(cc4sccc43)c2=O)cc1` (stereo not given), the inhibition was -3.61%.
Work on `Cc1ccc(S(=O)(=O)N(CC(=O)Nc2ccc(Cl)cc2Cl)c2ccccc2C)cc1` yielded an inhibition of -4.73%.
`COc1ccccc1C(=O)Nc1cccc(C(=O)OCc2cc(=O)n3ccsc3n2)c1` gave an inhibition of -15%.
With `Cc1cccc(NC(=O)CSc2nc(-c3ccccc3)cc(=O)[nH]2)c1C` the inhibition was 5.93%.
For `Cc1ccc(C(C)C)c(OCC(O)CN2CCN(c3ccccc3F)CC2)c1` (stereo not given), the inhibition was 4.85%.
`Cc1ccc(NC(=O)CCC(=O)N2Cc3ccccc3Oc3ncccc32)c(C)c1` was tested, and the inhibition was -4.92%.
`CCOc1ccc(CCNC(=O)CN2C(=O)COc3ccc(S(=O)(=O)N4CCCC4)cc32)cc1` showed an inhibition of -13%.
`CCn1c(=N)c(C(=O)NCc2ccccc2)cc2c(=O)n3cccc(C)c3nc21` was tested, and the inhibition was 18.7%.
`Cc1cccc(-c2nc(C)c(CCNC(=O)C(=O)Nc3ccccc3C#N)s2)c1` was tested, and the inhibition was 10.1%.
`COc1ccc(-n2nnnc2C2CCN(S(=O)(=O)c3ccc(NC(C)=O)cc3)CC2)cc1` gave an inhibition of -2.71%.
For `COc1ccc(Cl)cc1S(=O)(=O)NCc1ccc2c(c1)CCN2C(=O)c1cccc(C)c1`, the inhibition was -20.6%.
`CC(C)c1ccc(C2NC(=O)c3n[nH]c(-c4cccs4)c32)cc1` (stereo not given) showed an inhibition of 7.16%.
`CCS(=O)(=O)c1ncc(Cl)c(C(=O)Nc2ccc(S(=O)(=O)N(C)c3ccccc3)cc2)n1` was tested, and the inhibition was 7.66%.
`Cc1nn(-c2ccc(N3CCOCC3)nn2)c(C)c1CCC(=O)NCc1ccc(Cl)cc1` gave an inhibition of 3.43%.
